# Values joined by “and” are separate entries in the source; they are usually repeats but may differ in a detail not shown here. Equal entries are not always repeated. This list was built around the results that the source calls inconclusive (neither active nor inactive); the mix of calls is not that of the screen. For part of these data: A potency beside an inconclusive call is a rough fit, not a confirmed value. The source holds several records for some structures; these can differ, active in one and inactive in another. Active and inactive are the calls of the source. Unless noted, calls come from the whole dose curve; as a rule, active = well fitted curve in the direction sought with a large enough effect in the repeat runs; inconclusive = weak or mixed curves; inactive = no such curve, though single readings can be large; an effect the other way counts as inactive or inconclusive.
# Key:
# [1] = qHTS assay to identify small molecule antagonists of the TGF-beta/Smad signaling pathway (AID 1346924; active = well fitted inhibition curve with a large enough effect in the signal ratio in the repeat runs, not every such curve was filed as active; inconclusive = weak or mixed curves; the % refers to the signal ratio); conditions: SBE-bla HEK293T, TGF-beta/Smad reporter, beta-lactamase ratio; activity, negative = inhibition: at 76.8 µM (top of the series) unless noted
# Method in brief: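 Read-out was FRET-substrate fluorescence (405 nm excitation; 460 and 530 nm emission) after 2 h at room temperature. Before that, cells carrying a Smad-binding-element beta-lactamase reporter in HEK 293T had been stimulated 5 h at 37 C with TGF-beta1 (0.25 ng/mL addition solution) in the presence of test compound.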
# [2] = target: Cytochrome P450 2D6 (Homo sapiens) (UniProt P10635); assay: Cytochrome P450 Family 2 Subfamily D Member 6 (CYP2D6) small molecule antagonists: luciferase reporter qHTS assay (AID 1671196); note: nearly all actives have a fitted effect of over 50% in size
# Sequence of UniProt P10635 (P10635 whole entry, looked up): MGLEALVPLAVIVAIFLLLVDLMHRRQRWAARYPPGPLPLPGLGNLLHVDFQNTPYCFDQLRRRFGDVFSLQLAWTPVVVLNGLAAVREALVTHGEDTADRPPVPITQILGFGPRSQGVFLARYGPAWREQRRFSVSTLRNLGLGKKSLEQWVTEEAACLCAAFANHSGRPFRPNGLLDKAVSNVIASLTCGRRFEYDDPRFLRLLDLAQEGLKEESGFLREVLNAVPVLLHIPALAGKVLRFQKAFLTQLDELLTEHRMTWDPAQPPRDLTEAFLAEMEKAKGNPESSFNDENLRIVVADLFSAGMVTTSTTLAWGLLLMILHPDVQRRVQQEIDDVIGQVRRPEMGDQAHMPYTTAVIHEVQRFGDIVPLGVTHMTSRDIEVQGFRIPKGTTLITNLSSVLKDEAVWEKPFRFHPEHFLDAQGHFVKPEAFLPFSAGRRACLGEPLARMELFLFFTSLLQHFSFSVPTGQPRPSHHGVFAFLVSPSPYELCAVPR
# Method in brief: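 CYP2D6 activity was followed as luminescence from its luciferin product after a 1 h NADPH-driven reaction at room temperature. Enzyme-substrate mix and compound were pre-incubated for 10 min, and the signal was read 20 min after adding detection reagent.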
# [3] = target: Cytochrome P450 2C19 (Homo sapiens) (UniProt P33261); assay: Cytochrome P450 Family 2 Subfamily C Member 19 (CYP2C19) small molecule antagonists: luciferase reporter qHTS assay (AID 1671197); note: nearly all actives have a fitted effect of over 65% in size
# Sequence of UniProt P33261 (P33261 whole entry, looked up): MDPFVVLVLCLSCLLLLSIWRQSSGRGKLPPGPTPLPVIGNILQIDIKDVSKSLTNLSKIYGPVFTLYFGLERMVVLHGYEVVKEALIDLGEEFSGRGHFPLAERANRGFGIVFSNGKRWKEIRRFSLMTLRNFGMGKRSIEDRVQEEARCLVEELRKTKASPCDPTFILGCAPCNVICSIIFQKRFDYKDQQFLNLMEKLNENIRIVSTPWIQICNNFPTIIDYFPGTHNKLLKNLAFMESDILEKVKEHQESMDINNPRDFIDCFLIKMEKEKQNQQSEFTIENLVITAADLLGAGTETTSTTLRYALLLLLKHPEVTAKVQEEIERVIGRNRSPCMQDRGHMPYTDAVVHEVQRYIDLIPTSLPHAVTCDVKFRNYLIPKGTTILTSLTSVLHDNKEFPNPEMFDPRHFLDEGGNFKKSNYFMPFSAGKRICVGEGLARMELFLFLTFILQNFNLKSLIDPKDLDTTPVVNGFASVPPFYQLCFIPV
# Method in brief: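 Enzyme-substrate mix with proluciferin substrate (P450-Glo CYP2C19 system) preincubated with compounds 10 min at room temperature; NADPH regeneration solution added, 37C for 1 h; detection reagent stops reaction, luminescence read after 20 min. Ketoconazole positive control.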
# [4] = target: Cytochrome P450 2C9 (Homo sapiens) (UniProt P11712); assay: Cytochrome P450 Family 2 Subfamily C Member 9 (CYP2C9) small molecule antagonists: luciferase reporter qHTS assay (AID 1671198); note: nearly all actives have a fitted effect of over 50% in size
# Sequence of UniProt P11712 (P11712 whole entry, looked up): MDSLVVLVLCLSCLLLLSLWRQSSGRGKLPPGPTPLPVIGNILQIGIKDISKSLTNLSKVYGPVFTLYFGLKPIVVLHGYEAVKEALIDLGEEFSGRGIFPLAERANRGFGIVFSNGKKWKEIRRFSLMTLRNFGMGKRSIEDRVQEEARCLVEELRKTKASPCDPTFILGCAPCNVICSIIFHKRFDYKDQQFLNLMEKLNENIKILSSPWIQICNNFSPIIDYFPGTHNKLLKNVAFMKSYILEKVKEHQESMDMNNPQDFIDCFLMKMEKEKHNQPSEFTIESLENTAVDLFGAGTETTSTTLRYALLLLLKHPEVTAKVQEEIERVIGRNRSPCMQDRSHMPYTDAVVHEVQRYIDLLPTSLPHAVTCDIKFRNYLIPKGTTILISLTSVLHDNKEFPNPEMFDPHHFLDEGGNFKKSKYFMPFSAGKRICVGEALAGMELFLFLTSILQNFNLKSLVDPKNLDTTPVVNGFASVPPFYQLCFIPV
# Method in brief: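 CYP2C9 activity was measured with a P450-Glo proluciferin substrate. Enzyme–substrate mix was held with compound for 10 min at room temperature, then NADPH regeneration solution was added for 1 h at 37C. Luciferin product was read as luminescence.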
# [5] = target: Cytochrome P450 1A2 (Homo sapiens) (UniProt P05177); assay: Cytochrome P450 Family 1 Subfamily A Member 2 (CYP1A2) small molecule antagonists: luciferase reporter qHTS assay (AID 1671199); note: nearly all actives have a fitted effect of over 50% in size
# Sequence of UniProt P05177 (P05177 whole entry, looked up): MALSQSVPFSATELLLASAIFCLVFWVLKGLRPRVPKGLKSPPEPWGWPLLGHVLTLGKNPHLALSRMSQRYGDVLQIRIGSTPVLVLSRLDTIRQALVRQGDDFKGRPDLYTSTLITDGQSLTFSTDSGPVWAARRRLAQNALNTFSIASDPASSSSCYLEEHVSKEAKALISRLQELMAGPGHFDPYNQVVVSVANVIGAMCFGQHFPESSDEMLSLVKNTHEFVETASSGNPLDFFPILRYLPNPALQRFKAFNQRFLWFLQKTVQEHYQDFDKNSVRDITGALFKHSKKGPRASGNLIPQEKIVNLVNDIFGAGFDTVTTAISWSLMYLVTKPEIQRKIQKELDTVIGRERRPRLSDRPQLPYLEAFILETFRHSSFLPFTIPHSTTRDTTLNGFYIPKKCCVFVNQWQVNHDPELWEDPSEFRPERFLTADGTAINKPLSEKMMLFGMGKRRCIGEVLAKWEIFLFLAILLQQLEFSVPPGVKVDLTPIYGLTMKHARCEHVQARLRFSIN
# Method in brief: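 Luminescence from luciferin formed by CYP1A2 from a proluciferin substrate, read 20 min after detection reagent. Compound was pre-incubated 10 min with enzyme-substrate, and reaction started with NADPH regeneration solution for 1 h at room temperature; furafylline control.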
# [6] = target: Cytochrome P450 3A4 (Homo sapiens) (UniProt P08684); assay: Cytochrome P450 Family 3 Subfamily A Member 4 (CYP3A4) small molecule antagonists: luciferase reporter qHTS assay (AID 1671201); note: nearly all actives have a fitted effect of over 50% in size
# Sequence of UniProt P08684 (P08684 whole entry, looked up): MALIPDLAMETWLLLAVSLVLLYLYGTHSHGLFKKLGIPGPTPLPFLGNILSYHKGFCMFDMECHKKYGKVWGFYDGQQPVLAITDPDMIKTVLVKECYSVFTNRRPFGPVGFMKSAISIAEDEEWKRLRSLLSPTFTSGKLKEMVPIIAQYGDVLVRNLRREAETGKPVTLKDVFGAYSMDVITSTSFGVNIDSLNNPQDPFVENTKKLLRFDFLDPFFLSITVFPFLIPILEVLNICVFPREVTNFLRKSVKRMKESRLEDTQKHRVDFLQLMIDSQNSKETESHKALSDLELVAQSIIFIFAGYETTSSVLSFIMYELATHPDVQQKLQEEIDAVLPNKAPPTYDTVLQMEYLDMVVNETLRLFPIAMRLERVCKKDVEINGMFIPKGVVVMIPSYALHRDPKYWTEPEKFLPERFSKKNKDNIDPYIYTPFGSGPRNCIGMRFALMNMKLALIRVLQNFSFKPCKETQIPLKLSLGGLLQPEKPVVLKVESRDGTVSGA
# Method in brief: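 Setup: enzyme-substrate mix, compound pin transfer, 10 min RT. Reaction: NADPH regeneration solution, 1 h RT. Readout: detection reagent stops turnover, luminescence measured after 20 min, expressed in relative luminescence units.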
# [7] = target: Voltage-gated inwardly rectifying potassium channel KCNH2 (Homo sapiens) (UniProt Q12809); assay: Human Ether-a-go-go-Related Gene (hERG) channel small molecule antagonists: fluorescence cell-based qHTS assay (AID 1671200); note: nearly all actives have a fitted effect of over 50% in size
# Sequence of UniProt Q12809 (Q12809 whole entry, looked up): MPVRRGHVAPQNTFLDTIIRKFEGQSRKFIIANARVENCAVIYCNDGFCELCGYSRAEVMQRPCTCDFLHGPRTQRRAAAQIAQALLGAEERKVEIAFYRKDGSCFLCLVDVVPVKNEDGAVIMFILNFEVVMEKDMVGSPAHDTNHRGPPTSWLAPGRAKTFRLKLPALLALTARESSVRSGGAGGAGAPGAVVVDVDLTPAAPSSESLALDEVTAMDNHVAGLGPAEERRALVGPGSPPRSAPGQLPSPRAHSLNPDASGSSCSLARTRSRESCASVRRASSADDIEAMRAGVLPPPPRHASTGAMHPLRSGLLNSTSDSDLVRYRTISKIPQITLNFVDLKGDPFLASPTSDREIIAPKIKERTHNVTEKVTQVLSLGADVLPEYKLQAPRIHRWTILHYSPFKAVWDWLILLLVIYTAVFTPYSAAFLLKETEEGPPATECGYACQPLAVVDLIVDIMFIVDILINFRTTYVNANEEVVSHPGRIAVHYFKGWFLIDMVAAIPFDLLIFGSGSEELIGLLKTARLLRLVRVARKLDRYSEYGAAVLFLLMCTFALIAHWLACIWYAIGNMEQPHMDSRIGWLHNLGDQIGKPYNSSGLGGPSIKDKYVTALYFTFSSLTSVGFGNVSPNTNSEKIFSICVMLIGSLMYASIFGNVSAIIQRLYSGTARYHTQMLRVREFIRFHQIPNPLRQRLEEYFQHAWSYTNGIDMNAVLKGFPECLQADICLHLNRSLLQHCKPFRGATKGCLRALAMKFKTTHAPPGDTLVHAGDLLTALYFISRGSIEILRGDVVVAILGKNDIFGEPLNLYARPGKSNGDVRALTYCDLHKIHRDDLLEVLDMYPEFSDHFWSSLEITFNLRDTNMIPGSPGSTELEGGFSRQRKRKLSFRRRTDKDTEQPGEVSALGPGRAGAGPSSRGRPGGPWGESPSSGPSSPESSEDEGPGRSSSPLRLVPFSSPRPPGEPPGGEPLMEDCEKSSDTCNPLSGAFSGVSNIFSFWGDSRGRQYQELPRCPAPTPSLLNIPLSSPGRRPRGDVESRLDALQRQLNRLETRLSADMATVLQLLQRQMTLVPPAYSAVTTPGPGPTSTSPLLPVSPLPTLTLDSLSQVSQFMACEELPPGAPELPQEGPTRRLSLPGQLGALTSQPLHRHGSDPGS
# Method in brief: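 Measured: Tl+ flux via fluorescence (480/540 nm) in hERG-expressing U2OS cells after 1 h dye loading at room temperature.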
# [8] = target: Nuclear receptor subfamily 1 group I member 2 (Homo sapiens) (UniProt O75469); assay: Human pregnane X receptor (PXR) small molecule agonists, qHTS assay (AID 1346982); note: nearly all actives have a fitted effect of over 35% in size
# Sequence of UniProt O75469 (O75469 whole entry, looked up): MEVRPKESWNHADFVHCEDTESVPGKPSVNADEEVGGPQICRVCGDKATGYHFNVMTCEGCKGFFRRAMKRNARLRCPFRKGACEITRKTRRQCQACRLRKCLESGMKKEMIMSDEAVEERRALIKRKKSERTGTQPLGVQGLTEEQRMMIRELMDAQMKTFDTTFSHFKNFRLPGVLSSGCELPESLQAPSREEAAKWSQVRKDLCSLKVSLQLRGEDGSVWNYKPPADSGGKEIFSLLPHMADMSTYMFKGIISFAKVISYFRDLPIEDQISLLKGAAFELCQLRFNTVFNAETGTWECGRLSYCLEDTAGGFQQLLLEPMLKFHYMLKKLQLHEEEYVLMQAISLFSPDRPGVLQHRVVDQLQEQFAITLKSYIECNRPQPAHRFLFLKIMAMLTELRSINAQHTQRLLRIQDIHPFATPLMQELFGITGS
# Method in brief: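 Agonist mode: luminescence from ONE-Glo after 24 h compound exposure at 37C in HepG2 cells carrying hPXR-responsive CYP3A4 luciferase, plated in charcoal-stripped serum medium 5 h beforehand.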
# [9] = Human pregnane X receptor (PXR) small molecule agonists, qHTS cell viability counter screen (AID 1346977); note: nearly all actives have a fitted effect of over 50% in size
# Method in brief: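 Readout is CellTiter-Fluor fluorescence from PXR-Luc HepG2 cells. Plated cells rested 5hr, then were treated with compounds for 24hr at 37C and 5% CO2, with reagent present during the last hour.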
# [10] = Caspase-3/7 induction in HepG2 cells by small molecules, qHTS assay (AID 1346978); note: nearly all actives have a fitted effect of over 15% in size
# Method in brief: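 Wild-type HepG2 cells (2,000/well) were settled 5 h at 37 C, 5% CO2, then exposed to compounds in DMSO for 17 h. Caspase-3/7 activity was read by luminescence 30 min after adding Caspase-Glo 3/7 reagent at room temperature.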
# [11] = Caspase-3/7 induction in CHO-K1 cells by small molecules, qHTS cell viability counter screen (AID 1346979); note: nearly all actives have a fitted effect of over 35% in size
# Method in brief: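 To flag cytotoxic compounds, treated CHO-K1 wild-type cells were given CellTiter-Fluor at 16hr and read fluorescently after 1hr at 37C; the caspase-3/7 luminescence was measured in these same wells.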
# [12] = Caspase-3/7 induction in HepG2 cells by small molecules, qHTS cell viability counter screen (AID 1346981); note: nearly all actives have a fitted effect of over 30% in size
# Method in brief: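 CellTiter-Fluor fluorescence measured viability in the same wells used for Caspase-Glo 3/7. HepG2 (wild type) at 2,000 cells/well were pre-incubated 5 hr, dosed, and given reagent at 16 hr, with 1 hr further at 37C.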
# [13] = target: Nuclear receptor subfamily 1 group I member 2 (Homo sapiens) (UniProt O75469); assay: Human pregnane X receptor (PXR) activation by small molecules, qHTS assay (AID 1346985); note: nearly all actives have a fitted effect of over 40% in size
# Method in brief: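 DPX-2 cells (HepG2 co-transfected with a PXR response element and a CYP3A4-promoter luciferase construct) were seeded at 2,000 per well, rested 5 hr at 37C, then exposed to DMSO-dissolved compounds for 24 hr. Activation was read as luciferase luminescence.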
# Potency is the fitted concentration of half-maximal effect; tags give direction and shape of the fitted curve or compound fluorescence and quenching.
compound,measurement,setting,value
CCCCOC(=O)CCCCCCCCC(=O)OCCCC,"activity, negative = inhibition",[1],inconclusive: 3.13%
same,Potency,[2],"inconclusive: 55 µM [inhibitor, single point]"
same,Potency,[3],inactive
same,Potency,[4],"inconclusive: 43.6 µM [inhibitor, single point]"
same,Potency,[5],inconclusive: 71 µM [inhibitor]
CC(=O)c1c(C)c([N+](=O)[O-])c(C(C)(C)C)c([N+](=O)[O-])c1C,"activity, negative = inhibition",[1],inconclusive: -15.3%
same,Potency,[2],inactive
same,Potency,[6],"inconclusive: 63.3 µM [inhibitor, partial curve, poor fit]"
CC1(C)CCC[C@]2(C)[C@H]3CC(=O)O[C@]3(C)CC[C@@H]12,Potency,[1],"inconclusive: 54.9 µM [rising, single point]"
same,Potency,[2],"inconclusive: 71 µM [inhibitor, partial curve, poor fit]"
same,Potency,[3],active: 39.9 µM
CCCCCCCCCCCCN1CCOCC1,"activity, negative = inhibition",[1],inconclusive: -15.5%
same,Potency,[3],inactive
same,Potency,[5],inactive
same,Potency,[7],"inconclusive: 13.8 µM [inhibitor, full curve]"
CCCCCCCCCCCCCCCCCC(=O)OCC(O)CO (stereo not given),"activity, negative = inhibition",[1],inconclusive: 6.6% [at 35.3 µM]
same,Potency,[4],"inconclusive: 44.8 µM [inhibitor, partial curve, poor fit]"
Cc1c(Cl)cccc1Nc1ccccc1C(=O)O,Potency,[1],"inconclusive: 23.9 µM [fluorescent, partial curve, poor fit]"
same,Potency,[8],"inconclusive: 29.8 µM [activator, partial curve, poor fit]"
same,Potency,[5],"inconclusive: 38.9 µM [inhibitor, single point]"
CN(C)[C@@H](CCOc1cccc2ccccc12)c1ccccc1,Potency,[9],"inconclusive: 26.6 µM [cytotoxic, partial curve]"
same,Potency,[10],"inconclusive: 33.5 µM [activator, single point]"
same,Potency,[11],"inconclusive: 33.5 µM [cytotoxic, single point]"
same,Potency,[12],inconclusive: 33.5 µM [cytotoxic]
same,Potency,[8],"inconclusive: 7.5 µM [activator, partial curve, poor fit]"
same,Potency,[7],active: 6.01 µM
CCCCOC(=O)/C=C\C(=O)OCCCC,"activity, negative = inhibition",[1],inconclusive: 17.1%
same,Potency,[4],"inconclusive: 36.8 µM [inhibitor, partial curve]"
same,Potency,[5],active: 7.34 µM
CCCCCCCCCCCC[N+](C)(C)C,Potency,[9],"inconclusive: 14.1 µM [cytotoxic, full curve] and inconclusive: 48.6 µM [cytotoxic, partial curve] and inconclusive: 27.3 µM [cytotoxic, full curve]"
same,Potency,[11],"inconclusive: 68.6 µM [cytotoxic, single point] and inconclusive: 68.6 µM [cytotoxic]"
same,Potency,[12],"inconclusive: 68.6 µM [cytotoxic, partial curve, poor fit] and inconclusive: 30.6 µM [cytotoxic, full curve]"
same,Potency,[8],"inconclusive: 77 µM [activator, single point]"
same,Potency,[3],"inconclusive: 89.4 µM [inhibitor, single point]"
same,Potency,[5],"inconclusive: 63.3 µM [inhibitor, partial curve] and inconclusive: 35.6 µM [inhibitor]"
same,Potency,[7],"inconclusive: 21.8 µM [inhibitor, full curve] and active: 21.9 µM and inconclusive: 21.9 µM [inhibitor]"
CC(COc1ccccc1)N(CCCl)Cc1ccccc1 (stereo not given),Potency,[9],"inconclusive: 79.4 µM [cytotoxic, partial curve, poor fit]"
same,Potency,[11],"inconclusive: 69.3 µM [cytotoxic, single point]"
same,Potency,[12],inactive
same,Potency,[2],active: 570 nM and active: 448 nM and active: 692 nM
same,Potency,[5],"inconclusive: 63.9 µM [inhibitor, partial curve] and inconclusive: 63.3 µM [inhibitor, partial curve]"
same,Potency,[7],"active: 19.7 µM and active: 24.5 µM and inconclusive: 15.1 µM [inhibitor, partial curve]"
CCCCCCCCCCCCOCCOCCOCCOCCOCCOCCOCCOCCOCCO,Potency,[9],active: 11.9 µM
same,Potency,[10],"inconclusive: 33.5 µM [activator, single point]"
same,Potency,[3],"inconclusive: 15.5 µM [inhibitor, single point]"
same,Potency,[5],"inconclusive: 27.5 µM [inhibitor, partial curve]"
same,Potency,[7],"inconclusive: 23.9 µM [inhibitor, partial curve]"
CCCCCCC(C)O (stereo not given),Potency,[9],inactive
same,Potency,[10],inactive
same,Potency,[2],inconclusive: 72.5 µM [inhibitor]
same,Potency,[3],"inconclusive: 91.3 µM [inhibitor, single point]"
same,Potency,[4],inconclusive: 72.5 µM [inhibitor]
CCOC(=O)N1CCC(n2c(=O)[nH]c3cc(Cl)ccc32)CC1,Potency,[9],"inconclusive: 21.1 µM [cytotoxic, partial curve]"
same,Potency,[11],"inconclusive: 33.5 µM [cytotoxic, single point]"
same,Potency,[12],"inconclusive: 26.6 µM [cytotoxic, single point]"
C=O,Potency,[9],"inconclusive: 71.9 µM [cytotoxic, single point]"
Nc1ccc(C(=O)Nc2ccccc2N)cc1,Potency,[9],"inconclusive: 23.7 µM [cytotoxic, partial curve]"
same,Potency,[10],"inconclusive: 16.8 µM [activator, partial curve]"
same,Potency,[8],active: 8.41 µM
same,Potency,[13],active: 11.2 µM

# Source: PubChem BioAssay (Tox21)
